In the supplement of paper PMC8813932:
Structures can show the parent of a compound that is named as a salt. ± gives the standard deviation of the averaged measurements. The list shows a part of the results. Repeats are few or missing, and single values can be far off.

Tests used:
Experiment in all cases: log2 surviving fraction relative to plate median (drug vs vehicle, or drug+dl922-947 vs dl922-947 alone); ovarian cancer lines: OVCAR4 is platinum-sensitive while Ov4Cis resists cisplatin and Ov4Carbo carboplatin; higher = more cell survival
Conditions in all cases: compound concentration: 10 uM, 192 h
[1] = tested on: OVCAR4
[2] = tested on: Ov4Carbo
[3] = tested on: Ov4Cis
[4] = dl922-947 oncolytic adenovirus co-treatment: MOI 10
[5] = dl922-947 oncolytic adenovirus co-treatment: none

SMILES | log2 surviving fraction [1, 4] | log2 surviving fraction [1, 5] | log2 surviving fraction [2, 4] | log2 surviving fraction [2, 5] | log2 surviving fraction [3, 4] | log2 surviving fraction [3, 5]
CCOC(=O)[C@H](CCc1ccccc1)N[C@@H](C)C(=O)N1Cc2cc(OC)c(OC)cc2C[C@H]1C(=O)O [Moexipril HCl] | 1.35 ± 0.91 | 0.765 ± 0.87 | 0.179 | 0.641 | -0.352 | 0.574
Cn1c(CCCC(=O)O)nc2cc(N(CCCl)CCCl)ccc21 [Bendamustine HCL] | 0.373 ± 0.066 | 3.27 ± 2.6 | 0.752 | 0.884 | 0.438 | 0.698
OC(c1ccccc1)(c1ccccc1)C1CCNCC1 [Azacyclonol] | -1.53 ± 0.15 | -0.732 ± 0.5 | -0.103 | -1.39 | -1.44 | -0.567
Cn1c(CNc2ccc(C(=N)N)cc2)nc2cc(C(=O)N(CCC(=O)O)c3ccccn3)ccc21 [BIBR 953 (Dabigatran etexilate, Pradaxa)] | 0.261 ± 0.14 | -0.787 ± 0.66 | 0.574 | 0.0656 | 0.0188 | -0.704
CCc1ccc(CCOc2ccc(CC3SC(=O)NC3=O)cc2)nc1 (configuration not stated) [Pioglitazone hydrochloride (Actos)] | -1.11 ± 0.024 | -0.284 ± 0.81 | -1.63 | 0.136 | -0.202 | -1.07
Fc1ccc([C@@H]2CCNC[C@H]2COc2ccc3c(c2)OCO3)cc1 [Paroxetine HCl] | -5.69 ± 1.4 | -4.6 ± 0.33 | -4.12 | -6.55 | -8.06 | -9.21
OC(CCN1CCCC1)(c1ccccc1)C1CCCCC1 (configuration not stated) [Procyclidine HCl] | -0.803 ± 0.39 | -0.383 ± 0.36 | -0.853 | -0.252 | -1.24 | -1.49
CN(C)CCCOc1nn(Cc2ccccc2)c2ccccc12 [Benzydamine Hydrochloride] | -0.914 ± 0.82 | -1.21 ± 0.26 | -0.593 | -0.00198 | -0.864 | -0.658
Cc1nnc(C(=O)NC(C)(C)c2nc(C(=O)NCc3ccc(F)cc3)c(O)c(=O)n2C)o1 [Raltegravir (MK-0518)] | 0.429 ± 0.43 | 0.879 ± 0.46 | 0.226 | 0.281 | 0.285 | 0.273
CCCCNC(=O)NS(=O)(=O)c1ccc(C)cc1 [Tolbutamide] | 0.417 ± 1.2 | 0.658 ± 0.31 | 0.165 | 0.712 | 1.22 | 0.592
CNC[C@H](O)c1ccc(O)c(O)c1 [Epinephrine bitartrate (Adrenalinium)] | -0.758 ± 0.54 | -0.646 ± 0.49 | -1.88 | -2.03 | -0.914 | -0.753
C#CCC(Cc1cnc2nc(N)nc(N)c2n1)c1ccc(C(=O)N[C@@H](CCC(=O)O)C(=O)O)cc1 (some centres not stated) [Pralatrexate (Folotyn)] | -2.28 ± 0.31 | -5.19 ± 0.3 | -4.49 | -7.26 | -0.645 | -0.765
C[C@@H](O)[C@H]1C(=O)N2C(C(=O)OCOC(=O)C(C)(C)C)=C(SC3CN(C4=NCCS4)C3)[C@H](C)[C@H]12 [Tebipenem pivoxil (L-084)] | 0.142 ± 1.1 | -0.276 ± 0.31 | 0.714 | 0.169 | -0.375 | -0.57
CN1C(=O)COc2c(C(=O)NC3CN4CCC3CC4)cc(Cl)cc21 (configuration not stated) | 0.531 ± 0.89 | 0.466 ± 1.1 | -0.00686 | -0.611 | -0.105 | 0.217
Clc1ccc(CCC(Cn2ccnc2)Sc2c(Cl)cccc2Cl)cc1 (configuration not stated) [Butoconazole nitrate] | -0.538 ± 0.32 | -1.9 ± 0.46 | -0.734 | -5.3 | -0.667 | -0.678
COC(=O)N/N=C/c1c[n+]([O-])c2ccccc2[n+]1[O-] [Carbadox] | -0.682 ± 0.77 | -0.35 ± 0.54 | 0.474 | 0.995 | -0.131 | 0.577
NC(=O)c1ncn([C@@H]2O[C@H](CO)[C@@H](O)[C@H]2O)c1N [Acadesine] | 0.999 ± 0.28 | 0.417 ± 0.37 | 0.6 | 0.481 | 0.522 | 0.672
CO[C@H]1C(=O)[C@]2(C)[C@@H](OC)C[C@H]3OC[C@@]3(OC(C)=O)[C@H]2[C@H](OC(=O)c2ccccc2)[C@]2(O)C[C@H](OC(=O)[C@H](O)[C@@H](NC(=O)OC(C)(C)C)c3ccccc3)C(C)=C1C2(C)C [Cabazitaxel (Jevtana)] | -5.26 ± 0.42 | -7.01 ± 3.2 | -3.97 | -6.61 | -4.54 | -6.57
NNC(=O)c1ccncc1.Nc1ccc(C(=O)O)c(O)c1 [Pasiniazid] | 0.299 ± 0.43 | -0.168 ± 0.73 | 0.47 | -0.00708 | -0.0113 | -0.181
CC(=O)NS(=O)(=O)c1ccc(NC(=O)c2ccccc2C(=O)O)cc1 [Phthalylsulfacetamide] | -0.208 ± 0.14 | -0.209 ± 0.67 | 0.656 | -0.447 | 0.698 | -2.18
Nc1nc(=O)[nH]cc1F [Flucytosine (Ancobon)] | 0.966 ± 1.6 | 0.784 ± 1.1 | 0.645 | 1.8 | -0.394 | 0.228
O=C(CCCN1CCC(O)(c2ccc(Cl)cc2)CC1)c1ccc(F)cc1 [Haloperidol (Haldol)] | 0.154 ± 1.3 | -0.108 ± 0.47 | 0.547 | -2.02 | 1.03 | 2.02
Cc1cc(=O)n(-c2ccccc2)n1C [Antipyrine] | 0.625 ± 0.21 | 0.418 ± 0.038 | 0.0122 | 0.26 | 0.348 | 0.427
Cc1ccc(C(=O)c2ccc(CC(=O)O)n2C)cc1 [Tolmetin Sodium] | 0.0381 ± 0.19 | 0.214 ± 0.19 | 0.0715 | 0.383 | 1.26 | -0.942

SMILES | log2 surviving fraction [1, 4] | log2 surviving fraction [1, 5] | log2 surviving fraction [2, 4] | log2 surviving fraction [2, 5] | log2 surviving fraction [3, 4] | log2 surviving fraction [3, 5]
COc1cc(NC(C)CCCN)c2ncccc2c1 (configuration not stated) [Primaquine Diphosphate] | -0.446 ± 0.53 | -0.229 ± 0.48 | -1.12 | 0.233 | -1.47 | -0.0192
O=C(N[C@H](CO)[C@H](O)c1ccc([N+](=O)[O-])cc1)C(Cl)Cl [Chloramphenicol (Chloromycetin)] | 0.294 ± 0.28 | 0.311 ± 0.42 | -0.802 | -1.05 | 0.275 | 0.421
CC(=O)O[C@]1(C(C)=O)CC[C@H]2[C@@H]3C[C@H](C)C4=CC(=O)C=C[C@]4(C)[C@@]3(F)[C@@H](O)C[C@@]21C [Fluorometholone Acetate] | 2.12 ± 0.7 | 0.781 ± 0.25 | 0.946 | 0.57 | 3.01 | -0.779
CO/N=C(\C(=O)N[C@@H]1C(=O)N2C(C(=O)O)=C(Cn3ccc(=N)n3CCO)CS[C@H]12)c1csc(N)n1 [Cefoselis sulfate] | -0.379 ± 0.25 | -0.0936 ± 0.32 | 0.367 | 0.0679 | -0.073 | -0.0678
CCCCC1(COC(=O)CCC(=O)O)C(=O)N(c2ccccc2)N(c2ccccc2)C1=O [Suxibuzone] | 0.533 ± 0.52 | 0.0246 ± 1 | 0.671 | 0.804 | -0.276 | 0.0925
CC(Oc1c(Cl)cccc1Cl)C1=NCCN1 (configuration not stated) [Lofexidine  HCl] | -0.0326 ± 0.62 | 0.929 ± 1.5 | 0.0104 | -0.0538 | -0.0339 | 0.592
NCC1(CC(=O)O)CCCCC1 [Gabapentin (Neurontin)] | 0.0601 ± 0.2 | 0.27 ± 0.48 | 0.222 | 0.274 | -0.108 | 0.595
NC(=O)c1cnccn1 [Pyrazinamide (Pyrazinoic acid amide)] | 0.325 ± 0.8 | 0.51 ± 0.49 | -0.862 | 1.18 | -0.406 | 0.91
CCc1c(Cl)c(O)c(Cl)c(O)c1C(=O)O[C@H]1[C@H](O)[C@H](OC)[C@H](OC/C2=C\C=C\C[C@H](O)/C(C)=C/[C@H](CC)[C@@H](O[C@@H]3OC(C)(C)[C@@H](OC(=O)C(C)C)[C@H](O)[C@@H]3O)/C(C)=C/C(C)=C/C[C@@H]([C@@H](C)O)OC2=O)O[C@@H]1C [Fidaxomicin] | 0.214 ± 0.99 | -1.78 ± 0.29 | -1.21 | -2.53 | 0.387 | -0.785
COc1cnc(NS(=O)(=O)c2ccc(N)cc2)nc1 [Sulfameter (Bayrena)] | -0.58 ± 0.69 | 0.065 ± 0.72 | 0.041 | 0.000634 | 0.386 | 0.273
Clc1ccc(C(Cn2ccnc2)OCc2csc3c(Cl)cccc23)c(Cl)c1 (configuration not stated) [Sertaconazole nitrate] | -0.125 ± 0.27 | -0.241 ± 0.81 | 0.556 | 0.142 | -0.681 | -0.15
CCOc1ccc2ccccc2c1C(=O)N[C@@H]1C(=O)N2[C@@H]1SC(C)(C)[C@@H]2C(=O)O [nafcillin sodium monohydrate] | 0.765 ± 0.088 | 0.651 ± 0.25 | -0.641 | 0.89 | 0.503 | 0.075
COc1ccc(C(=O)CC(=O)c2ccc(C(C)(C)C)cc2)cc1 [Avobenzone (Parsol 1789)] | -0.111 ± 0.31 | -0.47 ± 0.41 | -0.416 | -0.486 | 0.0334 | -0.379
O=P1(N(CCCl)CCCl)NCCCO1 (configuration not stated) [Cyclophosphamide monohydrate] | 0.0588 ± 0.21 | -0.307 ± 1.1 | -0.696 | 0.92 | 0.536 | 0.762
CCOc1cc(N)c(Cl)cc1C(=O)NCC1CN(Cc2ccc(F)cc2)CCO1 (configuration not stated) [Mosapride citrate] | -0.59 ± 0.23 | -0.00476 ± 0.053 | -0.162 | 1.07 | -0.28 | 0.11
O=C(OCC(O)CO)c1ccccc1Nc1ccnc2cc(Cl)ccc12 (configuration not stated) [Glafenine HCl] | -0.764 ± 0.26 | -1.07 ± 0.19 | -1.72 | -1.76 | -1.45 | -1.65
C[C@]12C=CC(=O)C=C1CC[C@@H]1[C@@H]2[C@@H](O)C[C@@]2(C)[C@H]1CC[C@]2(O)C(=O)CO [Prednisolone (Hydroretrocortine)] | 0.516 ± 0.56 | 0.08 ± 0.061 | 1.58 | 1.22 | 1.83 | -1.72
CCOC(=O)C1=C(COCCN)NC(C)=C(C(=O)OC)C1c1ccccc1Cl (configuration not stated) [Amlodipine besylate (Norvasc)] | -2.96 ± 0.45 | -3.68 ± 2.2 | -2.59 | -4.31 | -7.48 | -12.3
CNC(=O)c1ccc(N2C(=S)N(c3ccc(C#N)c(C(F)(F)F)c3)C(=O)C2(C)C)cc1F [MDV3100 (Enzalutamide)] | 0.869 ± 1.4 | 3.19 ± 3.7 | 0.354 | 1.2 | -0.0594 | 0.619
Clc1ccccc1C(c1ccccc1)(c1ccccc1)n1ccnc1 [Clotrimazole (Canesten)] | -0.311 ± 0.097 | -2.36 ± 0.17 | -0.267 | -4.11 | -0.348 | -0.979
Nc1nccs1 [Aminothiazole] | -0.9 ± 0.078 | -0.349 ± 0.024 | -0.0602 | 0.0305 | 0.00246 | -0.663
Cc1cc(C2CCCCC2)n(O)c(=O)c1 [Ciclopirox (Penlac)] | -5.86 ± 1.1 | -7.82 ± 2.6 | -4.69 | -10.1 | -4.51 | -10.7
COCCc1ccc(OCC(O)CNC(C)C)cc1 (configuration not stated) [Metoprolol tartrate] | 0.691 ± 1.4 | -0.279 ± 1.1 | -0.235 | -1.03 | -0.189 | -0.353
